{"source": "ChEMBL document CHEMBL4888484", "about": "“Replenishing the malaria drug discovery pipeline: Screening and hit evaluation of the MMV Hit Generation Library 1 (HGL1) against asexual blood stage Plasmodium falciparum ,using a nano luciferase reporter read-out” (2022)", "note": "About 540 (0.36%) of roughly 150,000 compounds showed an effect of 50% or more. Some of the results follow."}
{"test_system": "Plasmodium falciparum", "test": "Primary screen in NF54 nanoGlo assay, in single point, at 2uM, 72h; a lower Z score goes with more inhibition", "assay_type": "functional, Erythrocyte", "settings": "timepoint 72 hour", "units": {"% Inhibition": "%"}}
{"smiles": "COc1ccccc1-c1nc(Cn2nnc(-c3nc(-c4cccc(F)c4)no3)c2C)c(C)o1", "% Inhibition": -6, "Z score": 0.88}
{"smiles": "Cc1ccc(-n2nc(C(=O)NCc3cccnc3)nc2Cc2ccccc2)cc1", "% Inhibition": 2, "Z score": -0.28}
{"smiles": "O=C(O)[C@H]1CCN(C(=O)CCCc2ccc(F)c(F)c2)C1", "% Inhibition": 5, "Z score": -0.84}
{"smiles": "O=C(Cc1ccccc1O)N[C@@H]1C[C@H]1c1c(F)cccc1Cl", "% Inhibition": 5, "Z score": -0.92}
{"smiles": "COCCCN(Cc1cncnc1)[C@H]1CCCN(C(=O)OC(C)(C)C)CC1", "% Inhibition": -12, "Z score": 1.53}
{"smiles": "Cc1ccc(N2CCC(N3CCN(c4ccncc4C)CC3)CC2)cc1", "% Inhibition": -8, "Z score": 1.17}
{"smiles": "CC(=O)N[C@H](C(=O)Nc1ccncc1)C(C)C", "% Inhibition": 9, "Z score": -1.32}
{"smiles": "O=C(N[C@H]1CC[C@H](CO)CC1)c1ccc(Oc2cccc(Cl)c2Cl)nc1", "% Inhibition": -6, "Z score": 1.08}
{"smiles": "CCc1c(NC(=O)c2csc(-c3ccc(C)o3)n2)nnn1CCc1ccc(OC)cc1", "% Inhibition": -19, "Z score": 1.96}
{"smiles": "CCC(CC)C(=O)Nc1nc(C2CC2)cs1", "% Inhibition": 8, "Z score": -0.92}
{"smiles": "Nc1nonc1-c1noc(NCc2ccncc2)n1", "% Inhibition": 0, "Z score": -0.06}
{"smiles": "Cc1nc(C(=O)N2CCC(c3ccnc4ccccc34)CC2)c(C)o1", "% Inhibition": -36, "Z score": 4.24}
{"smiles": "CC(C)(C)C(=O)N1C[C@H](NC(=O)CCCc2cn[nH]c2)[C@@H](C2CC2)C1", "% Inhibition": -24, "Z score": 2.31}
{"smiles": "Cn1ccnc1C(=O)N1CCN([C@@H](c2ccccc2)c2ccc(Cl)cc2)CC1", "% Inhibition": -16, "Z score": 1.58}
{"smiles": "O=C(Cn1cc(S(=O)(=O)Cc2ccccc2Cl)c2ccccc21)N1CCN(c2ccccc2)CC1", "% Inhibition": 4, "Z score": -0.63}
{"smiles": "O=C(CCc1ccccc1C(=O)O)NC1CCC(c2ccc(F)cc2)C1", "note": "(stereo not drawn)", "% Inhibition": 0, "Z score": -0.02}
{"smiles": "Cc1ccccc1OCC(=O)Nc1cccc2cccc(NC(=O)COc3ccccc3C)c12", "% Inhibition": 0, "Z score": 0}
{"smiles": "Cc1cccc(C(=O)NCCn2c(-c3ccncc3)nc3ccccc32)c1", "% Inhibition": 3, "Z score": -0.59}
{"smiles": "CN(C[C@H]1CCCN1S(=O)(=O)Cc1ccon1)c1ccccc1", "% Inhibition": 31, "Z score": -2.93}
{"smiles": "CCOCCS(=O)(=O)NCC1(CO)CCCCC1", "% Inhibition": -3, "Z score": 0.41}
{"smiles": "CCOCCCN1C(=O)c2nc3ccccc3n2C[C@@]1(C)C(=O)NC1CCCC1", "% Inhibition": -32, "Z score": 3.12}
{"smiles": "CCN(CC)C(=O)c1sc(-c2cc(S(=O)(=O)N(C)C3CCCCC3)c(C)n2C)nc1C", "% Inhibition": -7, "Z score": 0.82}
{"smiles": "N[C@H]1CCCOc2c1ccc(Cl)c2Cl", "% Inhibition": -1, "Z score": 0.2}
{"smiles": "CC1(C)CC(=O)c2c(/C=C/c3ccccc3)n[nH]c2C1", "% Inhibition": 0, "Z score": -0.02}
{"smiles": "CCOC(=O)C(C)(O)CNC(=O)[C@H]1Cc2ccccc2O[C@@H]1C(F)(F)F", "note": "(stereo partly drawn)", "% Inhibition": 2, "Z score": -0.19}
{"smiles": "C[C@@H](C(=O)NCc1nc(-c2cnccn2)n[nH]1)n1cc(Cl)cn1", "% Inhibition": 1, "Z score": -0.1}
{"smiles": "COc1ccc(-c2cc(CN(Cc3ccco3)C(=O)C3CCCC3)no2)c(OC)c1", "% Inhibition": -7, "Z score": 0.83}
{"smiles": "Fc1ccccc1-c1cc(NC[C@H]2CCCO2)n2nccc2n1", "% Inhibition": 3, "Z score": -0.47}
{"smiles": "O=C(NCC1CCCN(c2ccnc(C(F)(F)F)c2)C1)C1CCCN1", "note": "(stereo not drawn)", "% Inhibition": -3, "Z score": 0.45}
{"smiles": "CCN(C[C@H]1CCOC1)C(=O)NCc1ccc2c(c1)OCO2", "% Inhibition": -17, "Z score": 3.23}
{"smiles": "CN(C)CC[C@H]1CN(Cc2cnc(-c3ccccc3)s2)CCO1", "% Inhibition": -19, "Z score": 2.64}
{"smiles": "O=S(=O)(Nc1cccn2nc(C3CC3)nc12)c1ccc(F)cc1", "% Inhibition": -5, "Z score": 0.55}
{"smiles": "O=C(Oc1ccc(NC(=O)c2ccccc2Cl)cc1)c1cnccn1", "% Inhibition": -20, "Z score": 3.39}
{"smiles": "CN(CCCn1ccnc1)C(=O)[C@H]1CC[C@H](Nc2ncccn2)CC1", "% Inhibition": -9, "Z score": 1.2}
{"smiles": "CC1CC(C)CN(CC(C)NC(=O)Nc2ccc3c(c2)OCO3)C1", "note": "(stereo not drawn)", "% Inhibition": 3, "Z score": -0.29}
{"smiles": "Cc1ccsc1CN(Cc1ccc(F)cc1)C(=O)CN(C(=O)c1cccc(C(F)(F)F)c1)C(C)C", "% Inhibition": -9, "Z score": 0.84}
{"smiles": "O=C(CCc1cn2ccccc2n1)N[C@H]1CC[C@@H]2CCC[C@@H]21", "% Inhibition": -15, "Z score": 2.91}
{"smiles": "CCCCN(C)c1ncc(Cl)c(C(=O)N2CCCn3ncnc32)n1", "% Inhibition": 3, "Z score": -0.55}
{"smiles": "C[C@H]1C[C@@H](C(=O)Nc2ccc(C(=O)Nc3ccccc3)cc2)O[C@@H]1C(=O)O", "% Inhibition": 13, "Z score": -1.63}
{"smiles": "O=C(Nc1ccccc1)C(=O)Nc1ccc2ncc(Cl)n2c1", "% Inhibition": 31, "Z score": -0.66}
{"smiles": "COCC(=O)NC[C@H]1OC[C@@H](NCc2ccc(C)cc2)[C@@H]1O", "% Inhibition": 29, "Z score": -3.29}
{"smiles": "CC(C)(C)c1cnc(CN[C@H]2CCCN(c3ncccn3)C2)s1", "% Inhibition": -14, "Z score": 2.12}
{"smiles": "COc1cccc(CCC(=O)N2CCCc3c2nc[nH]c3=O)c1F", "% Inhibition": -21, "Z score": 3.53}
{"smiles": "COc1ccccc1CNC(=O)c1cccnc1O[C@H]1CCOC1", "% Inhibition": 0, "Z score": -0.03}
{"smiles": "COc1nc(CNC(=O)c2ccsc2)nc(N2CCOCC2)n1", "% Inhibition": -5, "Z score": 0.78}
{"smiles": "COc1cc(OC)c(NC(=O)N2CCC3(CC2)CN(C)C[C@@H]3c2nnc(C)o2)cc1Cl", "% Inhibition": 4, "Z score": -0.75}
{"smiles": "CCc1onc(C)c1NC(=O)NC[C@H](C)c1nc(C)cs1", "% Inhibition": -8, "Z score": 0.88}
{"smiles": "CN(Cc1nnc[nH]1)S(=O)(=O)c1ccc2nc(C(C)(C)C)sc2c1", "% Inhibition": -9, "Z score": 0.75}
{"smiles": "Cn1c(CS(=O)(=O)Cc2ccccc2OC(F)F)cc(=O)n(C)c1=O", "% Inhibition": 10, "Z score": -1.36}
{"smiles": "O=C(Nc1ccc2nc(N3CCCC3)sc2c1)[C@H]1CCS(=O)(=O)C1", "% Inhibition": 0, "Z score": -0.04}
{"smiles": "COc1ccc(-c2c[nH]c(CNS(=O)(=O)c3cccs3)n2)cc1", "% Inhibition": -15, "Z score": 2.38}
{"smiles": "COc1ccc(CCNC(=O)C(=O)NCCc2ccccc2)cc1", "% Inhibition": -10, "Z score": 1.86}
{"smiles": "Cc1cnn(C[C@H](C)NCc2sc(N3CCOCC3)nc2C)c1", "% Inhibition": -6, "Z score": 0.85}
{"smiles": "CC(C)c1ccc2ncnc(N[C@H]3CCc4[nH]cnc4C3)c2c1", "% Inhibition": 96, "Z score": -17.94}
{"smiles": "Cc1cc(S(=O)(=O)Nc2ccc3cn[nH]c3c2)c(C)o1", "% Inhibition": -6, "Z score": 0.78}
{"smiles": "Cc1nc(C)c(C(=O)OCc2cccc3cccnc23)s1", "% Inhibition": -18, "Z score": 3.51}
{"smiles": "CC(C)CCc1nc([C@@H](N)CO)n(-c2ccc(F)cc2)n1", "% Inhibition": 8, "Z score": -1.62}
{"smiles": "COCC1(CNCc2ccc(Cl)cc2C)CCC1", "% Inhibition": 6, "Z score": -1.23}
{"smiles": "CCOC(=O)N1CC[C@H](Oc2ncccn2)C1", "% Inhibition": -5, "Z score": 0.95}
{"smiles": "O=C(c1cnn2ccccc12)N1CCc2nc[nH]c2C1", "% Inhibition": 0, "Z score": -0.07}
{"smiles": "CC(=O)Oc1ccc(N2C(=O)C3C(Cc4c[nH]c5ccccc45)NC4(C(=O)Nc5ccc(Cl)cc54)C3C2=O)cc1", "note": "(stereo not drawn)", "% Inhibition": -9, "Z score": 0.83}
{"smiles": "Cc1nc(C)c(-c2ccc(C(=O)NCCN(C)S(C)(=O)=O)cc2)s1", "% Inhibition": -9, "Z score": 1.24}
{"smiles": "CCn1cc(CN2CCC(O)(C(F)(F)F)CC2)cn1", "% Inhibition": -3, "Z score": 0.46}
{"smiles": "Clc1ccc(CN2CCN(c3nc4ccccc4c4nnc(C5CCCCC5)n34)CC2)cc1", "% Inhibition": 9, "Z score": -1.47}
{"smiles": "CN(C(=O)c1cnc(-c2ccsc2)s1)c1nncn1C", "% Inhibition": 1, "Z score": -0.12}
{"smiles": "COc1cncc(C(NC(=O)NC(C)(C)CC(C)(C)C)[C@H]2C[C@H](O)C2)c1", "note": "(stereo partly drawn)", "% Inhibition": -13, "Z score": 2.56}
{"smiles": "O=C1NC(=O)N2CCN(Cc3ccc(OCc4ccc(F)cc4)cc3)C[C@@H]12", "% Inhibition": -12, "Z score": 1.49}
{"smiles": "CCOC(=O)c1nccc(C#N)c1Cl", "% Inhibition": 40, "Z score": -5.19}
{"smiles": "Cc1cc(C)c(S(=O)(=O)N2CCC3(CC2)NCCN=C3NCc2ccc3c(c2)OCO3)cc1C", "% Inhibition": -8, "Z score": 1.1}
{"smiles": "Cc1cc(C)c(C(=O)N2CCO[C@H](C(=O)C3CC3)C2)o1", "% Inhibition": 9, "Z score": -1.71}
{"smiles": "CCOc1ccc(C(=O)N(C)CCN(C)C(=O)c2ccc(OCC)c(OCC)c2)cc1OCC", "% Inhibition": 2, "Z score": -0.31}
{"smiles": "CCCCc1nc(CN(C)CC#N)cs1", "% Inhibition": -8, "Z score": 1.22}
{"smiles": "Cc1cc(C)cc(OCc2noc(CN(CCO)C3CC3)n2)c1", "% Inhibition": 0, "Z score": -0.03}
{"smiles": "C[C@H](O)c1cc2n(n1)CCCN(c1nc3ccccc3n1CCO)C2", "% Inhibition": -6, "Z score": 1.1}
{"smiles": "O=C1CC[C@@H](C(=O)NCc2nc(C3CCC(F)(F)CC3)no2)N1", "% Inhibition": -16, "Z score": 2.17}
{"smiles": "Cc1cc([C@@H]2CCCCN2c2nc3c(s2)c(C)nn3C)no1", "% Inhibition": -1, "Z score": 0.14}
{"smiles": "CN(CCc1cccs1)C1Cc2ccccc2C1O", "note": "(stereo not drawn)", "% Inhibition": -10, "Z score": 0.97}
{"smiles": "Cc1cc(Cl)ccc1OCC(=O)NS(C)(=O)=O", "% Inhibition": -2, "Z score": 0.36}
{"smiles": "OCCn1nc(Cc2cccs2)nc1-c1cnc(N2CCOCC2)nc1", "% Inhibition": -18, "Z score": 1.61}
{"smiles": "COc1ccccc1CC(=O)Nc1nc(C)no1", "% Inhibition": -9, "Z score": 1.49}
{"smiles": "Cc1ccc(-c2noc(-c3sccc3S(=O)(=O)N(C)c3ccc4c(c3)OCCO4)n2)cc1C", "% Inhibition": -5, "Z score": 0.75}
{"smiles": "CN(C)S(=O)(=O)CC(=O)N1CCCC[C@@H]1CCc1ccccc1", "% Inhibition": -5, "Z score": 0.86}
{"smiles": "Cn1nc(C(F)(F)F)cc1CS(=O)(=O)c1ccc2c(c1)CCO2", "% Inhibition": -2, "Z score": 0.28}
{"smiles": "Cc1cccc(-n2nc(-c3cn(C)nc3C)c(C)c2-c2cn(C)nc2C)c1", "% Inhibition": 27, "Z score": -3.06}
